Assay results taken from article PMC4336329 (PLoS ONE, 2015).
In all, about 310,000 compounds went through this assay and about 14,000 (4.5%) showed an effect of 50% or more. The effect is printed as a negative number. Some of the results follow.

Each compound was assayed against human ether-à-go-go-related gene (hERG) potassium channel (human, UniProt Q12809) (assay: primary screen, population patch clamp on CHO cells stably expressing hERG).
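Also: peak tail current of the secondary pulse compared with the same well before compound.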

Chain of human ether-à-go-go-related gene (hERG) potassium channel (Q12809 whole entry, looked up): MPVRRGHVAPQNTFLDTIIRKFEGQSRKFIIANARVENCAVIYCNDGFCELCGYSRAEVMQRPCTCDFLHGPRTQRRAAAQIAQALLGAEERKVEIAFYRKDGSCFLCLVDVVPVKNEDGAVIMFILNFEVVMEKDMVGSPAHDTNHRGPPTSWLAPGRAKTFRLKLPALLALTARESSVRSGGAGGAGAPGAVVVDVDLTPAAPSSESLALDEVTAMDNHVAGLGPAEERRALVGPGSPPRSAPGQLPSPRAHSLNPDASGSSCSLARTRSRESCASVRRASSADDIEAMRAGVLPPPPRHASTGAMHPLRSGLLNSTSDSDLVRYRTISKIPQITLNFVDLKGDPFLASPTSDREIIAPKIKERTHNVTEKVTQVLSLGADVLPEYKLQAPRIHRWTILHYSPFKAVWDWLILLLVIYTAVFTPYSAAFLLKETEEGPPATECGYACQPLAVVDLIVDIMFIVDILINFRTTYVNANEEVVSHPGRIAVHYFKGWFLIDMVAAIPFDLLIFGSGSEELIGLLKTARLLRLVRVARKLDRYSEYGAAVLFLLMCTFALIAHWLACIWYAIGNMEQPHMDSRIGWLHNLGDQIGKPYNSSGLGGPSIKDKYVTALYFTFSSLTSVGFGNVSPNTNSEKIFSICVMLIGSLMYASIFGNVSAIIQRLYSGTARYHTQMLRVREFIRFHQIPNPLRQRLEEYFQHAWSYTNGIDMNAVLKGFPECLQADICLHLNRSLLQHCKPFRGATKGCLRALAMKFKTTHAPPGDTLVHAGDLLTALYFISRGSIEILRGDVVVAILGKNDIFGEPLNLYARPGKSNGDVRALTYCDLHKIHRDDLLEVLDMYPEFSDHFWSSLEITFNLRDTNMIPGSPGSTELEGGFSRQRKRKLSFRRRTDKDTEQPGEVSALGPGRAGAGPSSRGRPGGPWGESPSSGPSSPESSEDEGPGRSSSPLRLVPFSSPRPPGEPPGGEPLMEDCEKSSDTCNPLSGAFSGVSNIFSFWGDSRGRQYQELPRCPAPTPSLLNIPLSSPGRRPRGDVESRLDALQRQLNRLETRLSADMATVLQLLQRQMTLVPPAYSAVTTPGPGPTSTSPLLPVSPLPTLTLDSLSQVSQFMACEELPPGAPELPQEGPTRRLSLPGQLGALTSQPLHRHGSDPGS

| Compound | hERG current change (%, negative = inhibition) at 10uM [%] |
| --- | --- |
| CCOC(=O)C1=C(O)C(=O)N(Cc2ccc(C(C)(C)C)cc2)CC1 | 13.1 |
| CS(=O)(=O)c1ccc(C(=O)Nc2ccccc2N2CCOCC2)c(Cl)c1 | -3.63 |
| COc1ccc(C(=O)CC(=O)c2ccc(C)cc2)c(O)c1 | 15.5 |
| Cc1sc(NC(=S)NC(=O)C(C)(C)C)c(C(N)=O)c1C | 12.8 |
| CCOC(=O)C1=C(CSc2nc(C)cc(C)c2C#N)OC(N)=C(C#N)C1c1cccs1 (centres unmarked) | -4.99 |
| CCOC(=O)c1ccc(N2C(=O)CC(N3CC=C(c4ccc(F)cc4)CC3)C2=O)cc1 (centres unmarked) | 6.65 |
| COCCn1c(N)c(C(=S)NC(=O)c2cccs2)c(=O)[nH]c1=O | 5.26 |
| Cc1ccc(C)c(C(=O)CN2C(=O)C(=O)N(C3CCCC3)C2=O)c1 | 1.63 |
| O=S(=O)(Nc1cc(S(=O)(=O)N2CCOCC2)ccc1NCC1CCCO1)c1ccccc1 (centres unmarked) | -11.7 |
| COc1ccc(C2c3ccc4ccccc4c3Oc3ncn(CCCN(C)C)c(=N)c32)cc1 (centres unmarked) | -76.4 |
| COc1ccc(S(=O)(=O)N2CCC(C(=O)N[C@H](C(=O)NCc3ccco3)C(C)C)CC2)cc1 | 18.6 |
| CN(C)CCNc1oc(COc2ccc(Cl)cc2)nc1C#N | -47.6 |
| Cc1ccc(C(=O)CC(=O)c2ccccc2)cc1 | 16.2 |
| COc1ccc(CNc2ncc(-c3ccc(Cl)cc3)n2C)c(OC)c1OC.O=C(O)C(=O)O | -47 |
| Cl.O=C(c1cccs1)c1coc2ccc(O)c(CN(CCO)CCO)c12 | -41 |
| O=c1c(-c2ccccc2)coc2c(CN3CCOCC3)c(O)ccc12 | -5.67 |
| Cc1ccc([N+](=O)[O-])c2cccnc12 | 11.2 |
| COc1ccc(CCC(=O)NC2CCC(C)CC2)cc1 (centres unmarked) | 9.84 |
| Cc1ccccc1N1CCN(C2CCCN(C(=O)CCC(=O)N(C)C)C2)CC1 (centres unmarked) | 9.34 |
| COC(=O)c1cc(Br)c(=O)n(-c2ccccc2F)c1 | -2.93 |
| O=C(c1ccccc1)c1cc(-c2ccccc2)on1 | 7.6 |
| O=C(Nc1cc(S(=O)(=O)N2CCOCC2)ccc1N1CCCC1)C1CC1 | -0.0868 |

| Compound | hERG current change (%, negative = inhibition) at 10uM [%] |
| --- | --- |
| O=C(Nc1cccnc1)c1ccc(S(=O)(=O)N2CCCCCC2)cc1 | 5.14 |
| O=C(/C=C/c1ccccc1[N+](=O)[O-])Nc1ccccc1 | 10.1 |
| COC(=O)c1nnn(-c2nc(N3CCOCC3)nc(N3CCOCC3)n2)c1C | -3.53 |
| Cc1ccc(NC(=O)COC(=O)CCc2c(C)nc3nc(N)nn3c2C)cc1C | -26 |
| CN(C(=O)c1ccco1)c1nc(-c2ccc(F)cc2)cs1 | 12.6 |
| COc1cc2oc(=O)ccc2cc1[C@@H](O)[C@@H]1OC(C)(C)OC1(C)C | 5.94 |
| Cc1ccccc1CNC(=O)CC1C(=O)NCCN1Cc1c(F)cccc1Cl (centres unmarked) | 2.88 |
| O=C(Cn1c(=O)c2cccn2c2cccnc21)NCCCN1CCN(c2ccc(F)cc2)CC1 | -76.4 |
| COc1cc(C(=O)NC(C)CCn2cccn2)ccc1OC1CCN(C(C)=O)CC1 (centres unmarked) | 9.56 |
| COc1ccccc1NC(=O)CCCc1nc(-c2ccc(OC)c(OC)c2)no1 | -21 |
| CC1=C/C(=N\NC(=O)c2ccccc2)CC1 | -53.1 |
| CCNc1nc(N)c(C(=O)c2ccc(Cl)s2)s1 | 16.3 |
| CCOC(=O)N1CCN(c2c(NCC3CCCO3)c(=O)c2=O)CC1 (centres unmarked) | 9.53 |
| Cc1ccc2c(c1)c1c3n2CCN(C(=O)CN2CCN(C)CC2)C3CCC1 (centres unmarked) | -16.5 |
| CC(C)CCNC(=O)c1ccc(NC(=O)C2=CSCCO2)cc1 | 4.36 |
| O=C(COC(=O)CCNS(=O)(=O)c1ccc2c(c1)OCCO2)NC1CCCc2ccccc21 (centres unmarked) | -0.954 |
| O=C(CCCN1C(=O)c2cccc3cccc(c23)C1=O)N1CCN(c2ccccc2)CC1 | 15.1 |
| O=C(CN1C(=O)NC2(CCCC2)C1=O)NNC(=O)c1ccc(Cl)cc1 | 4.11 |
| Cc1ccc(Nc2nc3ccccc3s2)c(C)c1 | -9.47 |
| CCCn1nnc(NC(=O)COc2ccc(CC)cc2)n1 | -11.8 |
| COCCCNC(=O)c1ccc2nc3ccccc3c(=O)n2c1 | 14.7 |
| CCN(CC)CCOc1ccc2c(c1)C(=NO)c1cc(OCCN(CC)CC)ccc1-2.Cl | -16.4 |
